Measurements taken from a collection of fitness landscapes (doi:10.1016/j.celrep.2020.107928).
Whole data set: some 81,000 sequences, median “one-hybrid fitness for binding NBS DNA” near -0.1, cut for the highest 2% near 0.36. The list shows a part of the results.

B1: Caulobacter ParB omega fusion; a variant is named by its letters at X, in order, B8GW30 (parent)
chain: MESVVVGEPGMSEGRRGLGRGLSALLGEVDAAPAQAPGEQLGGSREAPIEILQRNPDQPRRTFREEDLEDLSNSIREKGVLQPILVRPSPDTAGEYQIVAGERAWRAAQRAGLKTVPIMVRELDDLAVLEIGIIENVQRADLNVLEEALSYKVLMEKFERTQENIAQTIGKSXSHVANXMRLLXLPDEVQSYLVSGELTAXHARAIAAAADPVALAKQIIEGGLSVRETEALARKAPNLSAGKSKGGRPPRVKDTDTQALESDLSSVLGLDVSIDHRGSTGTLTITYATLEQLDDLCNRLTRGI

Variants of: B1
Experiment: one-hybrid fitness for binding NBS DNA (the Noc-binding site; scaled: cognate 1, non-cognate 0); higher = stronger binding
Details: with NBS DNA site
In short: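 The reporter was HIS3, with the binding site 19 bp from the promoter, in E. coli USO used for bacterial one-hybrid selection of Caulobacter ParB libraries with four specificity codons randomised. Growth was on M9 lacking histidine, with 0.1 mM IPTG and 5 mM 3-AT, for 48 hours at 37°C. Illumina sequencing covered plasmids before and after selection; three replicate libraries were pooled and variants with under 10 reads dropped. A fitness score is the log change in variant-to-wild-type read ratio, rescaled to the cognate and non-cognate references.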

| Variant | one-hybrid fitness for binding NBS DNA |
| --- | --- |
| FGRH | ≤ 0.2 |
| VQLW | ≤ 0.2 |
| PVLC | ≤ 0.2 |
| VAAL | ≤ 0.2 |
| RWYH | ≤ 0.2 |
| LTAV | ≤ 0.2 |
| MVMS | ≤ 0.2 |
| VETR | ≤ 0.2 |
| EAEL | ≤ 0.2 |
| CWRG | ≤ 0.2 |
| GPYH | ≤ 0.2 |
| ANYC | ≤ 0.2 |
| CGNS | ≤ 0.2 |
| HTRV | ≤ 0.2 |
| QMPR | 0.323 |
| CTSL | ≤ 0.2 |
| KRQP | ≤ 0.2 |
| TGMV | ≤ 0.2 |
| PELR | ≤ 0.2 |
| GMSR | ≤ 0.2 |
| HKDR | ≤ 0.2 |
| MCHT | ≤ 0.2 |
| NNQP | ≤ 0.2 |
| GCAI | ≤ 0.2 |
| NHCS | ≤ 0.2 |

| Variant | one-hybrid fitness for binding NBS DNA |
| --- | --- |
| LNKI | ≤ 0.2 |
| VSMY | ≤ 0.2 |
| QFPD | ≤ 0.2 |
| VRYL | ≤ 0.2 |
| GGHC | ≤ 0.2 |
| VKRL | ≤ 0.2 |
| SKRN | ≤ 0.2 |
| AKEV | ≤ 0.2 |
| NWCG | ≤ 0.2 |
| NANL | ≤ 0.2 |
| IVLG | ≤ 0.2 |
| LNGD | ≤ 0.2 |
| TTGF | ≤ 0.2 |
| YTAW | ≤ 0.2 |
| YREL | ≤ 0.2 |
| YITL | ≤ 0.2 |
| IKAS | ≤ 0.2 |
| ASDD | ≤ 0.2 |
| RGHG | ≤ 0.2 |
| CVSS | ≤ 0.2 |
| IHVT | ≤ 0.2 |
| FHYS | ≤ 0.2 |
| ARAN | ≤ 0.2 |
| DHLA | ≤ 0.2 |
| ARRM | ≤ 0.2 |

| Variant | one-hybrid fitness for binding NBS DNA |
| --- | --- |
| EREG | ≤ 0.2 |
| AIPT | ≤ 0.2 |
| FRAS | ≤ 0.2 |
| SPVT | ≤ 0.2 |
| MHVL | ≤ 0.2 |
| RRRP | 0.283 |
| SQPN | ≤ 0.2 |
| LREG | ≤ 0.2 |
| MTGF | ≤ 0.2 |
| CGKS | ≤ 0.2 |
| NGVG | ≤ 0.2 |
| QLAE | ≤ 0.2 |
| PHTG | ≤ 0.2 |
| AAHA | ≤ 0.2 |
| GGED | ≤ 0.2 |
| RLEE | ≤ 0.2 |
| IAIG | ≤ 0.2 |
| PDPS | ≤ 0.2 |
| CISR | ≤ 0.2 |
| KWNR | ≤ 0.2 |
| HMMG | ≤ 0.2 |
| VVQC | ≤ 0.2 |
| NRTS | ≤ 0.2 |
| APCG | ≤ 0.2 |
| QILT | 0.236 |

| Variant | one-hybrid fitness for binding NBS DNA |
| --- | --- |
| HLTE | ≤ 0.2 |
| AHRA | ≤ 0.2 |
| RPSA | ≤ 0.2 |
| GHWE | ≤ 0.2 |
| PRNK | ≤ 0.2 |
| TFSG | ≤ 0.2 |
| VRRD | ≤ 0.2 |
| LGCT | ≤ 0.2 |
| PTPQ | ≤ 0.2 |
| HCDL | ≤ 0.2 |
| AGER | ≤ 0.2 |
| RIGD | ≤ 0.2 |
| ISEA | ≤ 0.2 |
| SGMF | ≤ 0.2 |
| KRIK | ≤ 0.2 |
| RCHM | ≤ 0.2 |
| CFHT | ≤ 0.2 |
| GENT | ≤ 0.2 |
| RCCW | ≤ 0.2 |
| HVHW | ≤ 0.2 |
| IALY | ≤ 0.2 |
| NCTK | ≤ 0.2 |
| LRAK | ≤ 0.2 |
| QKTF | ≤ 0.2 |
| TKWF | ≤ 0.2 |

| Variant | one-hybrid fitness for binding NBS DNA |
| --- | --- |
| YKLT | ≤ 0.2 |
| HTMP | ≤ 0.2 |
| TRSI | ≤ 0.2 |
| QVSV | ≤ 0.2 |
| IIPV | ≤ 0.2 |
| YTIV | ≤ 0.2 |
| EHHR | ≤ 0.2 |
| QIQA | ≤ 0.2 |
| RKSN | ≤ 0.2 |
| VKKT | ≤ 0.2 |
| PGMM | ≤ 0.2 |
| QMYL | ≤ 0.2 |
| KRSY | ≤ 0.2 |
| QLAR | 0.478 |
| KDVC | ≤ 0.2 |
| SESQ | ≤ 0.2 |
| CQCR | ≤ 0.2 |
| PPMK | ≤ 0.2 |
| PLKG | ≤ 0.2 |
| RQVG | ≤ 0.2 |
| TRGQ | ≤ 0.2 |
| FDLP | ≤ 0.2 |
| RWLF | ≤ 0.2 |
| NPTI | ≤ 0.2 |
| YQCC | ≤ 0.2 |

| Variant | one-hybrid fitness for binding NBS DNA |
| --- | --- |
| MFQR | ≤ 0.2 |
| RSER | ≤ 0.2 |
| HSAE | ≤ 0.2 |
| NQRR | ≤ 0.2 |
| DQKL | ≤ 0.2 |
| LMMY | ≤ 0.2 |
| PTNR | ≤ 0.2 |
| VANA | ≤ 0.2 |
| CKLC | ≤ 0.2 |
| QYYK | ≤ 0.2 |
| FADR | ≤ 0.2 |
| WIGG | ≤ 0.2 |
| VYCR | ≤ 0.2 |
| NRGY | ≤ 0.2 |
| RWDL | ≤ 0.2 |
| ECIR | ≤ 0.2 |
| ATNI | ≤ 0.2 |
| EDSF | ≤ 0.2 |
| KAKY | ≤ 0.2 |
| ACSC | ≤ 0.2 |
| PPFG | ≤ 0.2 |
| SSGR | ≤ 0.2 |
| HWLV | ≤ 0.2 |
| YRHN | ≤ 0.2 |
| SDQY | ≤ 0.2 |

| Variant | one-hybrid fitness for binding NBS DNA |
| --- | --- |
| VGDN | ≤ 0.2 |
| TTVL | ≤ 0.2 |
| EPIS | ≤ 0.2 |
| TEDC | ≤ 0.2 |
| QMPV | ≤ 0.2 |
| DLEG | ≤ 0.2 |
| CPDD | ≤ 0.2 |
| DPAL | ≤ 0.2 |
| RMHA | 0.237 |
| FLRK | ≤ 0.2 |
| LDWS | ≤ 0.2 |
| RTSY | ≤ 0.2 |
| PTRL | ≤ 0.2 |
| GHKG | ≤ 0.2 |
| TEAS | ≤ 0.2 |
| NTSP | ≤ 0.2 |
| CPVL | ≤ 0.2 |
| TFDG | ≤ 0.2 |
| AWRS | ≤ 0.2 |
| FLAT | ≤ 0.2 |
| RSRT | 0.602 |
| CFDR | ≤ 0.2 |
| YAKM | ≤ 0.2 |
| SCNE | ≤ 0.2 |
| SLDR | ≤ 0.2 |

| Variant | one-hybrid fitness for binding NBS DNA |
| --- | --- |
| TFMM | ≤ 0.2 |
| RQEN | ≤ 0.2 |
| DTYS | ≤ 0.2 |
| VRNM | ≤ 0.2 |
| VPSL | ≤ 0.2 |
| YLIC | ≤ 0.2 |
| SFNI | ≤ 0.2 |
| HVRG | ≤ 0.2 |
| CHHS | ≤ 0.2 |
| VQHY | ≤ 0.2 |
| DLVG | ≤ 0.2 |
| CGSA | ≤ 0.2 |
| AATW | ≤ 0.2 |
| SRER | ≤ 0.2 |
| GCWW | ≤ 0.2 |
| SALD | ≤ 0.2 |
| TDPT | ≤ 0.2 |
| IVAK | ≤ 0.2 |
| RQGT | 0.351 |
| KYGV | ≤ 0.2 |
